# Screen size: about 310,000 compounds; about 2,200 (0.71%) showed an effect of 50% or more. Effects have a minus sign here. Some of the results follow.
# Molecular target: human ether-à-go-go-related gene (hERG) potassium channel (human, UniProt Q12809)
# Test: primary screen, population patch clamp on CHO cells stably expressing hERG
# Chain of human ether-à-go-go-related gene (hERG) potassium channel (Q12809 whole entry, looked up): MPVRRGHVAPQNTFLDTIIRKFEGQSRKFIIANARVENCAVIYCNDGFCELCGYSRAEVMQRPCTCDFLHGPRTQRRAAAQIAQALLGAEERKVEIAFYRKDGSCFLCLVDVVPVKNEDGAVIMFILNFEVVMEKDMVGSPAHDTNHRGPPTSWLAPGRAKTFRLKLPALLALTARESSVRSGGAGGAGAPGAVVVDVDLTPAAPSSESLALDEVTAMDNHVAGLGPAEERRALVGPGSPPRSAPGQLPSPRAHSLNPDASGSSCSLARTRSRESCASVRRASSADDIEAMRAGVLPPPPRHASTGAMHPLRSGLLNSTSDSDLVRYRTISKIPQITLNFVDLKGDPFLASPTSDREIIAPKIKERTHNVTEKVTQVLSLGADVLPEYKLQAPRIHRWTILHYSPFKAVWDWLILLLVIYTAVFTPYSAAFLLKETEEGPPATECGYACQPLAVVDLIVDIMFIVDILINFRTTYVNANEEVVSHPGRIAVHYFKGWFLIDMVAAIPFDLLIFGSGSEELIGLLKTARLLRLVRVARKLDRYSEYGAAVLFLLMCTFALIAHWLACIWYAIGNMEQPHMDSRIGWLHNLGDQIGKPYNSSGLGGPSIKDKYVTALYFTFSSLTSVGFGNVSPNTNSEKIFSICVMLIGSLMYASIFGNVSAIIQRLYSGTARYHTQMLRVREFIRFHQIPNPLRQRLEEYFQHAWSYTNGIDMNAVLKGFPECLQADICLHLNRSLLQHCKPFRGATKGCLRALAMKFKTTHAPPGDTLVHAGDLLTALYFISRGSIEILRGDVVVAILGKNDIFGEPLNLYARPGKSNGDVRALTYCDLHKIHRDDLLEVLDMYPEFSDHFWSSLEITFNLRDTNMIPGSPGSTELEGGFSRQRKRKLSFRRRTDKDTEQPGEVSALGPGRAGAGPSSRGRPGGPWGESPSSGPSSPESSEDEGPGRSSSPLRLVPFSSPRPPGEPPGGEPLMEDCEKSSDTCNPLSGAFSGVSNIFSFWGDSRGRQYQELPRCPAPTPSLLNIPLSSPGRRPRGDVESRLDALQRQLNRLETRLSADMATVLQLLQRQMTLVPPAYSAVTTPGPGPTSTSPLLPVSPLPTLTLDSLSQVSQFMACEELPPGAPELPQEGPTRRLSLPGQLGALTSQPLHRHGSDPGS
row,SMILES,"hERG current change (%, negative = inhibition) at 1uM"
1,OC1CCCN(Cc2cccc3ccccc23)C1 (stereo not shown),14.7%
2,CC(C)CCN(C(=S)NC(=O)C1CCCCC1)c1c(N)n(Cc2ccccc2)c(=O)[nH]c1=O,25.4%
3,COCCCNC(=O)c1cc(-c2cccnc2)nc2ccc(S(=O)(=O)N3CCCCCC3)cc12,17.9%
4,COC(=O)c1c(-c2ccc(Br)cc2)csc1NC(=O)Cc1ccc(OC)c(OC)c1,7.66%
5,CC(C)NC(=O)C1CCCN(S(=O)(=O)c2cccs2)C1 (stereo not shown),8.52%
6,O=C(CNC(=S)N(Cc1ccccc1)Cc1ccccc1F)NCc1ccccc1,16.9%
7,COc1ccc(-n2c(=S)[nH]c3cc(C(=O)N4CCN(c5ccccc5)CC4)ccc3c2=O)cc1,18.7%
8,CC(C)=CCc1c(O)ccc(C(=O)Cc2ccccc2)c1O,4.58%
9,CN=C1CC(C)(C)CC(=O)/C1=C(/O)CCC(=O)NC,10.8%
10,O=C(O)/C=C/c1ccc(O)c(O)c1,6.46%
11,CCOC(=O)c1c(NC(C)=O)sc2c(OCC(O)CN(CC)CC)c(Br)ccc12 (stereo not shown),-13.8%
12,Cc1cccc(NC(=S)NNC(=O)c2cc3c(s2)CCC(C)C3)c1C (stereo not shown),-0.82%
13,COC(=O)c1ccc(NC(=O)C(=O)N2CCN(C(=S)Nc3ccc(OC)cc3)CC2)cc1,12.7%
14,CCCn1nnc(NC(=S)NC(=O)/C=C/c2ccco2)n1,10.5%
15,COc1cc(C2c3c(c(C)c(C)oc3=O)Oc3c(C)c(C)oc(=O)c32)ccc1OS(=O)(=O)c1ccc(C)cc1,13.2%
16,O=S(=O)(Nc1nccs1)c1cnc(Cl)c(Br)c1,13.1%
17,Cn1c(C(=O)N2CCC3(CC2)OCCO3)cc2c(=O)n(C)c3ccccc3c21,-0.0348%
18,CCOC(=O)C1(CCc2ccccc2)CCN(C(=O)CCc2cnn(C)c2)CC1,-1.9%
19,O=C(CN1CCc2cc3c(cc2C1)OCCCO3)Nc1ccccc1,3.59%
20,COc1ccc(/C=C/C(=O)Nc2nc(N)n(-c3ccccc3)n2)cc1,-7.54%
21,CCCC12CN(C(=O)c3ccco3)CC(CCC)(CN(C(=O)c3ccco3)C1)C2=O,7.91%
22,O=C(Nc1ccc(CN2CCOCC2)cc1)c1ccc(-c2ccc(Br)cc2)o1,7.12%

row,SMILES,"hERG current change (%, negative = inhibition) at 1uM"
1,CN(Cc1ccco1)C(=O)CN1C(=O)NC2(CCCCC2)C1=O,17%
2,COc1cccc(NC(=O)CN(C)C(=O)/C=C/c2cn(Cc3ccccc3)nc2-c2cccnc2)c1,-1.75%
3,OC(Cc1cccnc1)(Cc1cccnc1)c1cc2ccccc2[nH]1,10.8%
4,Cc1ccc(Nc2c(-c3ccc(N4CCOCC4)cc3)nc3ncccn23)cc1,15.1%
5,Cc1cc(=O)oc2cc(NC(=O)C3COc4ccccc4O3)ccc12 (stereo not shown),22.3%
6,Cn1cccc1/C=C1\SC(=O)N(c2ccc(O)cc2)C1=O,4.24%
7,NC1=NC[C@H](Cc2ccc(O)cc2)N1CCc1cccc(F)c1,2.2%
8,CCc1nc(SCC(=O)Nc2ccc(OC)cc2[N+](=O)[O-])n[nH]1,11.9%
9,CC(C(=O)NC1CCCCC1)N(Cc1ccccc1)C(=O)c1snc(C(N)=O)c1N (stereo not shown),2.95%
10,Clc1ccc(Cn2ncc3c(NCc4ccco4)ncnc32)c(Cl)c1,8.63%
11,COC(=O)/C(=N/Nc1ccc(C)cc1)N1CCCc2ccccc21,6.54%
12,COc1ccc(C2(C(=O)NCc3ccco3)CCCC2)cc1OC,3.87%
13,O=C(CSCC(=O)N1CCN(c2ccccc2)CC1)Nc1nc(-c2ccc(Cl)s2)cs1,2.82%
14,CCC(C)NC(=O)CCc1nnc2ccc(N3CCC(C)CC3)nn12 (stereo not shown),10.2%
15,Cc1cc(NS(=O)(=O)c2c(C(=O)N3CCOCC3)c(C)n(C)c2C)ccc1Br,19.2%
16,COc1ccc(Cc2nc(-c3ccccn3)no2)cc1OC,14.3%
17,CC(C)C(=O)Nc1ccc(N2CCN(S(C)(=O)=O)CC2)cc1,6.35%
18,COc1ccc(C)cc1-n1nnnc1SCc1cn2ccsc2n1,3.68%
19,COC(=O)c1cc(S(=O)(=O)N2CCN(C(=O)c3ccco3)CC2)cn1C,25%
20,N#Cc1cc(C#N)c(SCC(=O)N2CC(=O)Nc3ccccc32)nc1N,15.7%
21,O=C(COc1ccccc1)NCC1(N2CCCCC2)CCCCC1,-3.96%
